# Measured values reported in PubChem BioAssay (Tox21).
# “And” between values parts separate entries of the source, which are not always exact repeats. Equal entries are not always repeated. This list was built around the results that the source calls inconclusive (neither active nor inactive); the mix of calls is not that of the screen. For some assays here: Potencies of inconclusive entries are doubtful fits and often do not repeat. More than one record can exist for a structure, and the calls need not agree. The source made the active and inactive calls. Unless noted, calls follow the shape of the dose curve; as a rule, active = well fitted curve in the direction sought with a large enough effect in the repeat runs; inconclusive = weak or mixed curves; inactive = no such curve, though single readings can be large; an effect the other way counts as inactive or inconclusive.
# Legend:
# [1] = qHTS assay to identify small molecule agonists of the sonic hedgehog signaling (Shh) pathway - cell viability counter screen (AID 1259366); also: nearly all actives have a fitted effect of over 50% in size; also: potency is read from the fitted curve at half-maximal effect
# Method in brief: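 In quantitative high-throughput format, 3T3 Gli1-Luc cells were exposed to compounds for 24hr and multiplexed for viability using CellTiter-Fluor, incubated 1hr at 37C before the fluorescence read.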
# [2] = biological target: Estrogen receptor beta (Homo sapiens) (UniProt Q92731); experiment: qHTS assay to identify small molecule antagonists of the estrogen receptor beta (ER-beta) signaling pathway (AID 1259378; active = well fitted inhibition curve with a large enough effect in the signal ratio in the repeat runs, not every such curve was filed as active; inconclusive = weak or mixed curves, or effect the other way; inactive = no such curve, though single readings can be large or run the other way; the % refers to the signal ratio; also: potency is read from the fitted curve at half-maximal effect); details: ER-beta-UAS-bla HEK293T, beta-lactamase FRET ratio, 16 h; activity, negative = inhibition: at 92.4 µM (top of the series) unless noted
# Method in brief: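 ER-beta-UAS-bla HEK293T cells in 2% charcoal-stripped FBS medium treated with compound plus 1nM final 17-beta-estradiol for 16 hr at 37C. Beta-lactamase reporter read by FRET substrate fluorescence after 2 hours at room temperature.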
# [3] = qHTS assay to identify small molecule agonists of the androgen receptor (AR) signaling pathway in the presence of an antagonist - cell viability counter screen (AID 1259379); also: nearly all actives have a fitted effect of over 25% in size; also: potency is read from the fitted curve at half-maximal effect
# Method in brief: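 Viability counter screen: CellTiter-Fluor fluorescence, measured in the same wells as the luciferase read-out. MDA-kb2 cells, 3,000/well, with nilutamide at 3.0uM final and compounds at 15 concentrations, 16 hr at 37C, 0% CO2.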
# [4] = qHTS assay to identify small molecule agonists of the estrogen receptor beta (ER-beta) signaling pathway - cell viability counter screen (AID 1259380); also: nearly all actives have a fitted effect of over 30% in size; also: potency is read from the fitted curve at half-maximal effect
# Method in brief: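 Luminescence read-out (CellTiter-Glo, 30 min, room temp) taken in the same wells as the beta-lactamase reporter assay; ER-beta-UAS-bla HEK293T cells exposed to DMSO-dissolved compounds for 16 hr at 37C in 2% charcoal-stripped FBS medium.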
# [5] = qHTS assay to identify small molecule antagonists of the estrogen receptor beta (ER-beta) signaling pathway - cell viability counter screen (AID 1259382); also: % is scaled to controls: 0 for no effect and ±100 for the full control effect; nearly all actives have a fitted effect of over 55% in size
# Method in brief: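 Luminescent ATP read-out (CellTiter-Glo, 30 min, RT) taken in the same wells as the bla reporter assay. HEK293T ER-beta-UAS-bla cells in 2% charcoal-stripped FBS were exposed to compounds with 1nM E2 for 16 hr at 37C.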
# [6] = biological target: Progesterone receptor (Homo sapiens) (UniProt P06401); experiment: qHTS assay to identify small molecule agonists of the progesterone receptor (PR) signaling pathway (AID 1346784; calls by dose curve; also: nearly all actives have a fitted effect of over 30% in size; also: potency is read from the fitted curve at half-maximal effect; as to activation: % is scaled to controls: 0 for no effect and ±100 for the full control effect); details: PR-UAS-bla HEK293T, beta-lactamase FRET ratio, 16 h; activation: at 92.4 µM (top of the series) unless noted
# Method in brief: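 Reporter assay, GripTite PR-UAS-bla HEK 293T cells: 16 hr exposure to DMSO-dissolved compounds at 37C, 5% CO2, in steroid-depleted (2% charcoal-stripped FBS) medium; beta-lactamase measured by FRET fluorescence.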
# [7] = biological target: Progesterone receptor (Homo sapiens) (UniProt P06401); experiment: qHTS assay to identify small molecule antagonists of the progesterone receptor (PR) signaling pathway (AID 1346795; active = well fitted inhibition curve with a large enough effect in the signal ratio in the repeat runs, not every such curve was filed as active; inconclusive = weak or mixed curves; the % refers to the signal ratio; also: potency is read from the fitted curve at half-maximal effect; as to activity change, negative = inhibition: % is scaled to controls: 0 for no effect and ±100 for the full control effect); details: PR-UAS-bla HEK293T, beta-lactamase FRET ratio, 16 h; activity change, negative = inhibition: at 92.4 µM (top of the series) unless noted
# Method in brief: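 Stimulus R5020 at 1 nM final; cells HEK293T PR-UAS-bla; medium with 2% charcoal-stripped FBS; compound exposure 16 hr at 37C, 5% CO2; detection by FRET beta-lactamase substrate, 2 hr, room temperature.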
# [8] = qHTS assay to identify small molecule antagonists of the progesterone receptor (PR) signaling pathway - cell viability counter screen (AID 1346798); also: potency is read from the fitted curve at half-maximal effect; nearly all actives have a fitted effect of over 50% in size
# Method in brief: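 In the same plates used for the beta-lactamase readout, cell viability of compound- and R5020-treated PR-UAS-bla HEK293T cells (16 hr, 37C) was assessed by CellTiter-Glo luminescence.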
# [9] = biological target: Thyrotropin receptor (Homo sapiens) (UniProt P16473); experiment: qHTS assay to identify small molecule antagonists of the thyroid stimulating hormone receptor (TSHR) signaling pathway (AID 1259385; calls by dose curve; also: nearly all actives have a fitted effect of over 20% in size; also: potency is read from the fitted curve at half-maximal effect; as to activity change, negative = inhibition: % is scaled to controls: 0 for no effect and ±100 for the full control effect); details: TSHR-HEK293 cAMP HTRF, TSH-stimulated antagonist mode; activity change, negative = inhibition: at 92.4 µM (top of the series) unless noted
# Method in brief: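 TSHR-HEK293 cells (800/well) plated 18 h, then compounds with Ro20-1724 and TSH at 1.5 ng/mL final, 30 min at room temperature. cAMP quantified by HTRF (cAMP-d2/anti-cAMP-cryptate, 1 h); 15 concentrations in triplicate.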
# [10] = qHTS assay to identify small molecule agonists of the estrogen receptor alpha (ER-alpha) signaling pathway in the presence of an antagonist - cell viability counter screen (AID 1259386);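 also: potency is read from the fitted curve at half-maximal effect; cells exposed to compounds for 22 h at 37 °C before the viability read; nearly all actives have a fitted effect of over 30% in size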
# Method in brief: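 Read-out: CellTiter-Fluor fluorescence after 1hr reagent incubation, measured in the same wells as the luciferase readout. VM7Luc4E2 cells were exposed to 15 compound concentrations with 10.0nM ICI-182,780 for 22hr at 37C.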
# [11] = qHTS assay to identify small molecule agonists of the progesterone receptor (PR) signaling pathway - cell viability counter screen (AID 1346799; calls by dose curve; also: potency is read from the fitted curve at half-maximal effect; nearly all actives have a fitted effect of over 45% in size)
# Method in brief: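 Multiplexed viability read: CellTiter-Glo luminescence, 30 min RT, following LiveBLAzer FRET measurement on PR-UAS-bla HEK293T cells exposed to compounds 16 hr.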
# [12] = qHTS assay to identify small molecule antagonists of the TGF-beta/Smad signaling pathway - cell viability counter screen (AID 1346824); also: nearly all actives have a fitted effect of over 50% in size; also: potency is read from the fitted curve at half-maximal effect
# Method in brief: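 SBE-bla HEK 293T cells, incubated overnight, then compound plus 0.25 ng/mL TGF-beta1 (stock added) for 5 hr at 37 C. Viability was read in the same wells by CellTiter-Glo luminescence after 30 min at room temperature.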
# [13] = biological target: Estrogen receptor beta (Homo sapiens) (UniProt Q92731); experiment: qHTS assay to identify small molecule agonists of the estrogen receptor beta (ER-beta) signaling pathway (AID 1259377; active = well fitted activation curve with a large enough effect in the signal ratio in the repeat runs, not every such curve was filed as active; inconclusive = weak or mixed curves, or effect the other way; the % refers to the signal ratio; also: potency is read from the fitted curve at half-maximal effect; as to activation: % is scaled to controls: 0 for no effect and ±100 for the full control effect); details: ER-beta-UAS-bla HEK293T, beta-lactamase FRET ratio, 16 h; activation: at 92.4 µM (top of the series) unless noted
# Method in brief: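 Reporter cells (HEK293T, ER-beta-UAS-bla) receive compounds or DMSO after a 6 hr pre-incubation. They then incubate 16 hr at 37C/5% CO2, and fluorescence from LiveBLAzer B/G substrate is measured after 2 hours at room temperature.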
# [14] = qHTS assay to identify small molecule antagonists of the sonic hedgehog signaling (Shh) pathway (AID 1259369; calls by dose curve; also: potency is read from the fitted curve at half-maximal effect; nearly all actives have a fitted effect of over 45% in size)
# Method in brief: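 Luminescence readout: firefly Luc under Gli1 response element in 3T3Gli1-Luc cells (NIH/3T3 clone). Antagonist mode, stimulation by conditioned medium; compound exposure 24hr at 37 C, 5% CO2.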
# Tags tell the direction and shape of the fitted curve or compound fluorescence and quenching.
# Chain of UniProt Q92731 (Q92731 whole entry, looked up): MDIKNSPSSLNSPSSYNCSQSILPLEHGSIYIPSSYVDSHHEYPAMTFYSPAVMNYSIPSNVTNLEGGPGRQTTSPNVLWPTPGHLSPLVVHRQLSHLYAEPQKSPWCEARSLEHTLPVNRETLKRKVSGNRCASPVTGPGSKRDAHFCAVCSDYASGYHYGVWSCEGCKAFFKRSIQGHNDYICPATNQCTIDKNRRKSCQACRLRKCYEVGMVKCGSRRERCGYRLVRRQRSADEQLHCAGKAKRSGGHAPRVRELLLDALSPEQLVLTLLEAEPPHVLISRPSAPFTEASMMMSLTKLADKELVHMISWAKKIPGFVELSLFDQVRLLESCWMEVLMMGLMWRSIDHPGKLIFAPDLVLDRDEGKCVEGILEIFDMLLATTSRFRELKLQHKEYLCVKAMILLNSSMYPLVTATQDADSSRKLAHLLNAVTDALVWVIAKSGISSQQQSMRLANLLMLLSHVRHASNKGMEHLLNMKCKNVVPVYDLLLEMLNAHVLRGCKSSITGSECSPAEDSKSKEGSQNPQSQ
# Chain of UniProt P06401 (P06401 whole entry, looked up): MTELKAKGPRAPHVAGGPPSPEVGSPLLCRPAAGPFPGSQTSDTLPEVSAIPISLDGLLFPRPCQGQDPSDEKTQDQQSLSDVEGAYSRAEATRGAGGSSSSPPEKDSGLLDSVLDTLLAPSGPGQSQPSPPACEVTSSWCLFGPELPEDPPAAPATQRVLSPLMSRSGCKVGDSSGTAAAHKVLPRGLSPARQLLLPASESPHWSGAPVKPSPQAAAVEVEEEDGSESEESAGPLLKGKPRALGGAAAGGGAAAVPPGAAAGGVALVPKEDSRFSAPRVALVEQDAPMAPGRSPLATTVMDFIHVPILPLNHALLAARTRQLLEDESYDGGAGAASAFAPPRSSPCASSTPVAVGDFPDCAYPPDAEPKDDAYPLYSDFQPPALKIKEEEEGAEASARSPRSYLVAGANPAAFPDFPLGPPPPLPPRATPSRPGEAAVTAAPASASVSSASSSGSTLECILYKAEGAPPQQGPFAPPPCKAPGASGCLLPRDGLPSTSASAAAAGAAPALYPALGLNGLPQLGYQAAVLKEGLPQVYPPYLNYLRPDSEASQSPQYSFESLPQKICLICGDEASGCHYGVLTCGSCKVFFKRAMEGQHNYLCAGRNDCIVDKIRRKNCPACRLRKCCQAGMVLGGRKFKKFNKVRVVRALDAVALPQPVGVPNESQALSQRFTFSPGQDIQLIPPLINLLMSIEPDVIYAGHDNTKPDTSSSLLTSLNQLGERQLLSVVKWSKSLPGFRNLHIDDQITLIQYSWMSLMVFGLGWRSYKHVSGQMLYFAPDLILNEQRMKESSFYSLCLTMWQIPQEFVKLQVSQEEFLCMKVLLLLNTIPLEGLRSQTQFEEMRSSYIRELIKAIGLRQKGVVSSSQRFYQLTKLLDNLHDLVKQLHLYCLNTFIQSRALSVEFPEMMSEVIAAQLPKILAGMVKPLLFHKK
# Chain of UniProt P16473 (P16473 whole entry, looked up): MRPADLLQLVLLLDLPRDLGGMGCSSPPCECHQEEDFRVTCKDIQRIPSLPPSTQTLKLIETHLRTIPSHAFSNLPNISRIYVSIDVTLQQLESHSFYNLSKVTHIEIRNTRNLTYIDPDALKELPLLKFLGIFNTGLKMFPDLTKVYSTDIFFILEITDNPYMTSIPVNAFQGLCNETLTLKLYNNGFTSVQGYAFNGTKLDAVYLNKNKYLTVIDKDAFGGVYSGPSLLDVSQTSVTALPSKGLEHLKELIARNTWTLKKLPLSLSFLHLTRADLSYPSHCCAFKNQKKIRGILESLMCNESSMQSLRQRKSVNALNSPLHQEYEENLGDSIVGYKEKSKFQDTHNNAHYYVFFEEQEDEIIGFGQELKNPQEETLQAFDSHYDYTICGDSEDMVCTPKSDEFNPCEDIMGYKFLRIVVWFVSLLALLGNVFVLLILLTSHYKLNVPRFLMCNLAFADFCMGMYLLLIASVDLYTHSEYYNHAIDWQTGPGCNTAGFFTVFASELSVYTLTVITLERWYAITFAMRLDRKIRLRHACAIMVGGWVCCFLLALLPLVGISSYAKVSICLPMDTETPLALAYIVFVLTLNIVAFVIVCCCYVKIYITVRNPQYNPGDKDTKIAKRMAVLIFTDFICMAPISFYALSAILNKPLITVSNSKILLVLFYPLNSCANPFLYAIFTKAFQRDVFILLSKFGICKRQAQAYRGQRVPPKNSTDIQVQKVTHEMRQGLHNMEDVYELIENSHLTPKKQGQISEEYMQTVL
smiles,measurement,setting,value
S=C=NCc1ccccc1,Potency,[1],inactive
same,Potency,[2],active: 49.1 µM
same,Potency,[3],"inconclusive: 61.8 µM [cytotoxic, partial curve]"
same,Potency,[4],"inconclusive: 30.9 µM [cytotoxic, single point]"
same,Potency,[5],inactive
same,activation,[6],inconclusive: -17%
same,Potency,[7],inconclusive: 21.9 µM
same,Potency,[8],inconclusive: 27.6 µM [cytotoxic]
CC(CC(C#N)(c1ccccc1)c1ccccc1)N(C)C (configuration not stated),Potency,[1],"inconclusive: 19.2 µM [cytotoxic, full curve]"
same,Potency,[2],"inconclusive: 24.2 µM [inhibitor, partial curve]"
same,Potency,[9],inactive
same,Potency,[10],"inconclusive: 6.82 µM [cytotoxic, single point]"
same,Potency,[7],"inconclusive: 54.2 µM [falling, partial curve]"
same,Potency,[8],"inconclusive: 19.2 µM [cytotoxic, partial curve]"
same,Potency,[11],"inconclusive: 48.3 µM [cytotoxic, partial curve]"
N#Cc1cc(Br)c(O)c(Br)c1,Potency,[1],"inconclusive: 30.6 µM [rising, partial curve, poor fit]"
same,Potency,[3],"inconclusive: 61.1 µM [cytotoxic, single point]"
same,Potency,[9],"inconclusive: 68.5 µM [falling, single point]"
same,Potency,[6],"inconclusive: 46.8 µM [falling, partial curve, poor fit]"
NCCc1cc(O)c(O)cc1O,Potency,[1],inconclusive: 26.6 µM [cytotoxic]
same,Potency,[10],inconclusive: 33.5 µM [cytotoxic]
same,Potency,[7],inactive
CC(=O)[O-].CC(=O)[O-].O.O.[Cd+2],Potency,[1],active: 3.8 µM
same,Potency,[4],active: 60.3 µM
same,Potency,[10],active: 60.3 µM
same,Potency,[7],active: 0.603 µM
same,Potency,[8],active: 19.1 µM
same,Potency,[11],active: 15.1 µM
same,Potency,[12],inconclusive: 48.3 µM [cytotoxic]
CCOP(=S)(OCC)Oc1ccc2c(C)c(Cl)c(=O)oc2c1,Potency,[1],"inconclusive: 29.8 µM [cytotoxic, partial curve]"
same,Potency,[13],"inactive and inconclusive: 29.8 µM [fluorescent, single point]"
same,Potency,[2],"inconclusive: 55.1 µM [inhibitor] and inconclusive: 68.6 µM [inhibitor, single point] and inconclusive: 23.7 µM [fluorescent, partial curve]"
O=C1C[C@@H]2OCC=C3CN4CC[C@]56c7ccccc7N1[C@H]5[C@H]2[C@H]3C[C@H]46,Potency,[1],"inconclusive: 10.6 µM [cytotoxic, partial curve]"
same,Potency,[10],"inconclusive: 26.6 µM [cytotoxic, partial curve]"
same,Potency,[11],"inconclusive: 37.6 µM [cytotoxic, partial curve, poor fit]"
BrC(Br)C(Br)(Br)Br,Potency,[1],"inconclusive: 61.5 µM [cytotoxic, single point]"
same,Potency,[3],"inconclusive: 61.5 µM [cytotoxic, partial curve, poor fit]"
same,Potency,[4],"inconclusive: 61.5 µM [cytotoxic, partial curve, poor fit]"
same,Potency,[7],inactive
CCCn1cc[n+](C)c1,Potency,[1],"inconclusive: 69 µM [cytotoxic, single point]"
same,Potency,[14],"inconclusive: 0.195 µM [inhibitor, full curve, poor fit]"
same,Potency,[8],"inconclusive: 1.38 µM [cytotoxic, single point]"
Clc1ccc(C(Cl)(Cl)Cl)cc1,Potency,[1],inactive
same,Potency,[4],"inconclusive: 27.3 µM [rising, single point]"
CCCCCCI,Potency,[1],inactive
same,Potency,[11],"inconclusive: 15.4 µM [cytotoxic, partial curve, poor fit]"
O=[N+]([O-])c1ccccc1CCl,Potency,[1],inactive
same,Potency,[7],"inconclusive: 0.0195 µM [rising, full curve, poor fit]"
same,Potency,[12],inactive
CC(c1ccc(O)cc1)c1ccc(O)cc1,Potency,[1],active: 61.1 µM
same,Potency,[4],active: 40.6 µM
same,Potency,[10],"inconclusive: 68.6 µM [cytotoxic, partial curve]"
same,Potency,[6],"inconclusive: 17.2 µM [cytotoxic, full curve]"
same,activation,[6],inconclusive: 21.9%
Cc1cc(Cl)ccc1N=CN(C)C,Potency,[1],inactive
same,"activity, negative = inhibition",[2],inconclusive: 10.5%
same,Potency,[3],inactive
same,Potency,[4],inactive
CN1C2CCC(C)(C)C1CC(OC(=O)C(O)(c1cccs1)c1cccs1)C2 (configuration not stated),Potency,[1],"inconclusive: 23.7 µM [cytotoxic, partial curve]"
same,Potency,[14],"inconclusive: 13.3 µM [inhibitor, partial curve, poor fit]"
same,Potency,[7],inactive
same,Potency,[11],"inconclusive: 8.41 µM [cytotoxic, full curve, poor fit]"
